Experimental findings from the supplement of paper PMC4967469 are described below.

Holding throughout (experiment): Viability of human cancer cell lines after 72 h of drug (GDSC screen)
Compound in one assay: Fc1cc(-c2ccnc(Nc3ccc(-n4cnc(N5CCOCC5)n4)cc3)n2)cc(N2CCOCC2)c1 [JNK-9L]
The settings on record: top dose 5.12 µM; top dose inferred. On the procedure: (§1)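 Human cancer cell lines in 384-well plates, medium with 10% serum, drug for 72 h over a 256-fold dose range (nine 2-fold or five 4-fold steps up to the top dose). Adherent lines were fixed and stained with the nucleic acid dye Syto60, suspension lines read with resazurin; signal relative to control wells, capped at 0 and 100%. One two-parameter sigmoid per drug and line, fitted in a mixed model over all curves with the slope shared within a line.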

Compound in a further assay: O=c1[nH]cc(F)c(=O)[nH]1 [5-Fluorouracil]
The settings on record: top dose 32 µM; top dose inferred. On the procedure:
as §1

Compound in the next assay: NCC(=O)Nc1ccc(-n2nc(C(F)(F)F)cc2-c2ccc3c(ccc4ccccc43)c2)cc1 [OSU-03012]
The settings on record: top dose 16 µM; top dose inferred. On the procedure:
as §1

Compound in the next assay: OC[C@H](Cc1ccccc1)Nc1nc(Oc2ccc3c(c2)CCC3)nc2c1ncn2Cc1ccc(-c2ccccc2)cc1 [QS11]
The settings on record: top dose 10.24 µM. On the procedure: as §1

Compound in another assay: CC(C)(C)c1cc(NC(=O)Nc2ccc(-c3cn4c(n3)sc3cc(OCCN5CCOCC5)ccc34)cc2)no1 [AC220]
The settings on record: top dose 1.024 µM; top dose inferred. On the procedure: as §1

Compound in another assay: C#Cc1cccc(Nc2ncnc3cc(OC)c(OCCCCCCC(=O)NO)cc23)c1 [CUDC-101]
The settings on record: top dose 5.12 µM; top dose inferred. On the procedure: as §1

Compound in a further assay: COc1cc(F)c(F)c(Nc2ccc(I)cc2F)c1NS(=O)(=O)C1(C[C@H](O)CO)CC1 [RDEA119]
The settings on record: top dose 5 µM, top dose inferred. As to the method: as §1

The IC50 comes from the fitted curve, where viability falls to half of the control; where the fit passes the top or lowest dose, that dose stands as a limit. The AUC spans the tested range (256-fold, ending at the top dose) of the same fit; values near 1 show little effect. For some of these results: Any top dose called inferred is not printed in the source and was worked back from the curve model. For some of these results: An entry number marks a drug with two screens in the source, which often give different values.

For KYSE-510 (oesophagus, adherent), the AUC in the assay with JNK-9L worked out at 0.575; with 5-Fluorouracil it was 0.856; with OSU-03012, 0.501; with QS11 it was 0.779; with AC220, 0.991; with CUDC-101 it was 0.661. Besides, the figures for the AUC in the assay with RDEA119 (screen: GDSC drug entry 1014) and with RDEA119 (screen: GDSC drug entry 1526) were 0.964 and 0.962, respectively. Besides, the IC50 with JNK-9L was 0.493 µM; in the assay with 5-Fluorouracil, 19.3 µM; in the assay with OSU-03012 it was 1.01 µM; in the assay with QS11 it was 3.47 µM; in the assay with AC220, more than 1.02 µM; with CUDC-101, 0.82 µM. Besides, the IC50 with RDEA119 (screen: GDSC drug entry 1014) and with RDEA119 (screen: GDSC drug entry 1526) was more than 5 µM in each case.

With KYSE-520 (oesophagus, adherent), the AUC is 0.607 with JNK-9L; 0.944 in the assay with 5-Fluorouracil; 0.823 with OSU-03012; 0.964 with QS11; 0.978 in the assay with AC220; 0.72 with CUDC-101. The AUC with RDEA119 (screen: GDSC drug entry 1014) came to 0.784; in the assay with RDEA119 (screen: GDSC drug entry 1526), 0.837. For the same cell line, the IC50 in the assay with JNK-9L was 0.698 µM; with 5-Fluorouracil it was more than 32 µM; with OSU-03012, 14.1 µM; in the assay with QS11, more than 10.2 µM; in the assay with AC220, more than 1.02 µM; with CUDC-101, 1.7 µM. For the same cell line, the IC50 with RDEA119 (screen: GDSC drug entry 1526) is more than 5 µM.

Regarding L-363 (myeloma, suspension), the AUC was determined as 0.513 in the assay with JNK-9L; 0.668 with 5-Fluorouracil; 0.726 with OSU-03012; 0.844 with QS11; 0.976 with AC220; 0.47 with CUDC-101. For the same cell line, the AUC in the assay with RDEA119 (screen: GDSC drug entry 1014) stood at 0.942; in the assay with RDEA119 (screen: GDSC drug entry 1526), 0.953. Moreover, the IC50 with JNK-9L is 0.345 µM; with 5-Fluorouracil it was 5.45 µM; with OSU-03012, 3.95 µM; in the assay with QS11, 5.9 µM; with AC220, more than 1.02 µM; with CUDC-101 it was 0.268 µM. Besides, the IC50 with RDEA119 (screen: GDSC drug entry 1014) and with RDEA119 (screen: GDSC drug entry 1526) was more than 5 µM throughout.

Consider L-428 (Hodgkin lymphoma, suspension), for which the AUC stood at 0.631 with JNK-9L; 0.991 with 5-Fluorouracil; 0.818 with OSU-03012; 0.988 with QS11; 0.973 with AC220; 0.99 with CUDC-101. The AUC with RDEA119 (screen: GDSC drug entry 1014) is 0.989; with RDEA119 (screen: GDSC drug entry 1526), 0.979. For the same cell line, the IC50 in the assay with JNK-9L was 0.702 µM; with 5-Fluorouracil, more than 32 µM; with OSU-03012, 7.65 µM; with QS11, more than 10.2 µM; with AC220 it was more than 1.02 µM; with CUDC-101, more than 5.12 µM. Moreover, the IC50 with RDEA119 (screen: GDSC drug entry 1014) and with RDEA119 (screen: GDSC drug entry 1526) was more than 5 µM in each case.

As for L-540 (Hodgkin lymphoma, suspension), the AUC with JNK-9L worked out at 0.544; in the assay with 5-Fluorouracil, 0.987; with OSU-03012, 0.779; with QS11, 0.929; with AC220, 0.99; with CUDC-101, 0.979. Also, the AUC in the assay with RDEA119 (screen: GDSC drug entry 1014) worked out at 0.986; in the assay with RDEA119 (screen: GDSC drug entry 1526), 0.982. Further, the concentration for half-maximal inhibition (IC50) with JNK-9L is 0.415 µM; with 5-Fluorouracil it was more than 32 µM; with OSU-03012, 5.81 µM; in the assay with QS11, more than 10.2 µM; with AC220, more than 1.02 µM; with CUDC-101, more than 5.12 µM. For the same cell line, the IC50 in the assay with RDEA119 (screen: GDSC drug entry 1014) and in the assay with RDEA119 (screen: GDSC drug entry 1526) was more than 5 µM throughout.

Regarding L-1236 (Hodgkin lymphoma, suspension), the AUC was 0.76 in the assay with JNK-9L; 0.953 in the assay with 5-Fluorouracil; 0.973 in the assay with OSU-03012; 0.987 with QS11; 0.992 with AC220; 0.492 with CUDC-101. Also, the AUC with RDEA119 (screen: GDSC drug entry 1014) came to 0.967; with RDEA119 (screen: GDSC drug entry 1526) it was 0.981. In addition, the IC50 in the assay with JNK-9L is 1.54 µM; with 5-Fluorouracil, more than 32 µM; in the assay with OSU-03012 it was more than 16 µM; with QS11 it was more than 10.2 µM; with AC220 it was more than 1.02 µM; in the assay with CUDC-101, 0.305 µM. Also, the IC50 with RDEA119 (screen: GDSC drug entry 1014) and with RDEA119 (screen: GDSC drug entry 1526) was more than 5 µM throughout.

As to “LAMA-84 (chronic myeloid leukaemia, suspension)”, the AUC with JNK-9L turned out to be 0.805; with 5-Fluorouracil it was 0.667; with OSU-03012, 0.757; with QS11, 0.91; with AC220 it was 0.978; in the assay with CUDC-101 it was 0.723. Further, the values for the AUC in the assay with RDEA119 (screen: GDSC drug entry 1014) and in the assay with RDEA119 (screen: GDSC drug entry 1526) were 0.422 and 0.942, respectively. The IC50 with JNK-9L is 2.63 µM; with 5-Fluorouracil, 5.89 µM; in the assay with OSU-03012, 5.57 µM; in the assay with QS11, more than 10.2 µM; in the assay with AC220, more than 1.02 µM; in the assay with CUDC-101 it was 1.39 µM. In addition, the values for the IC50 in the assay with RDEA119 (screen: GDSC drug entry 1014) and with RDEA119 (screen: GDSC drug entry 1526) were 0.191 µM and more than 5 µM, respectively.

Turning to LAN-6 (neuroblastoma, adherent), the AUC came out at 0.761 in the assay with JNK-9L; 0.924 with 5-Fluorouracil; 0.768 with OSU-03012; 0.974 with QS11; 0.931 with AC220; 0.831 with CUDC-101. The AUC with RDEA119 (screen: GDSC drug entry 1014) was 0.571; in the assay with RDEA119 (screen: GDSC drug entry 1526), 0.803. Also, the IC50 with JNK-9L was 2.15 µM; with 5-Fluorouracil, more than 32 µM; with OSU-03012 it was 7.12 µM; in the assay with QS11, more than 10.2 µM; with AC220, more than 1.02 µM; with CUDC-101, 4.11 µM. The IC50 amounted to 0.508 µM in the assay with RDEA119 (screen: GDSC drug entry 1014) and 3.04 µM in the assay with RDEA119 (screen: GDSC drug entry 1526).

In general, IC50 refers to the concentration needed to halve the response being measured.
